# Measurements from paper PMC4336329 (PLoS ONE, 2015).
# Out of some 310,000 compounds screened, about 2,200 (0.71%) showed an effect of 50% or more. Effects have a minus sign here. Some of the results follow.
# Target: human ether-à-go-go-related gene (hERG) potassium channel (human, UniProt Q12809)
# Assay: primary screen, population patch clamp on CHO cells stably expressing hERG
# Sequence of human ether-à-go-go-related gene (hERG) potassium channel (Q12809 whole entry, looked up): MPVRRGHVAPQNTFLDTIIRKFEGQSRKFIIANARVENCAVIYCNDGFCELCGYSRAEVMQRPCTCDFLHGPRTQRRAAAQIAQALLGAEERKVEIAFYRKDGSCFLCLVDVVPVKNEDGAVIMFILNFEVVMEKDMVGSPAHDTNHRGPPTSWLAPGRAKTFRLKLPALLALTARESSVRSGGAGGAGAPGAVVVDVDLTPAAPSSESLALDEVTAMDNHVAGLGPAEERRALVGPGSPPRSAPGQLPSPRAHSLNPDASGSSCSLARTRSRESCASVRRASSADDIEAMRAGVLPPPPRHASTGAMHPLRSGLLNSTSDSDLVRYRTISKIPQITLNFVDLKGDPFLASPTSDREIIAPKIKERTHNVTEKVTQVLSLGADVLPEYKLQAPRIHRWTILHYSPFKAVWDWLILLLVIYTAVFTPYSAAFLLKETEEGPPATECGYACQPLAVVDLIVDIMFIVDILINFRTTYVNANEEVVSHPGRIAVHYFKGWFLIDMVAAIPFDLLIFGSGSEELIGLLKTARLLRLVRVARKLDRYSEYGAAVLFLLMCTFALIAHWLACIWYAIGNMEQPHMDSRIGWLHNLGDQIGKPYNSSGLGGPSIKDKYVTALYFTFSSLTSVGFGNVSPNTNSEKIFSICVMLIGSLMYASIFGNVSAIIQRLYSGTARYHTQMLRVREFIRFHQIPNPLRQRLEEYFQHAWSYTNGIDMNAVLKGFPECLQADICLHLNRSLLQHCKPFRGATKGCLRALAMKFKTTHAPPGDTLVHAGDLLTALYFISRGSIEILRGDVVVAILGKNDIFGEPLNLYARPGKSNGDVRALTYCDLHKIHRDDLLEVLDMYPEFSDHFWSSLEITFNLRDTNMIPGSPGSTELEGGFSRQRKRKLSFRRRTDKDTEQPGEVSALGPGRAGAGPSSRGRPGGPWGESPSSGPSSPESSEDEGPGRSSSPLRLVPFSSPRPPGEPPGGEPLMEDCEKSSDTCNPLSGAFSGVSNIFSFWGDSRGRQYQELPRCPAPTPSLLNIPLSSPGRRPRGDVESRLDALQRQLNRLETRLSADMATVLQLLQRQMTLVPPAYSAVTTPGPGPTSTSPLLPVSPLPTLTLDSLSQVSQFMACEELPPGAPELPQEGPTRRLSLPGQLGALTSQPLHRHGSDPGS
row,SMILES,"hERG current change (%, negative = inhibition) at 1uM"
1,CCCCOc1ccc(/C=C/C(=O)OCC(=O)NC2CCS(=O)(=O)C2)cc1OCC (stereo not drawn),14.6%
2,CN(C)S(=O)(=O)c1cccc(C(=O)OCC(=O)NCc2ccccc2)c1,3.55%
3,CCc1ccc(CNC(=O)CCCn2nc(C)n3ccnc3c2=O)cc1,11.2%
4,O=c1c2ccccc2nc(SCc2nnc(-c3ccccc3)o2)n1-c1ccccc1,11.6%
5,COc1ccc(S(=O)(=O)Cc2ccc(C(=O)N3CCN(C(=O)c4ccco4)CC3)o2)cc1,-0.815%
6,Cc1ccc(NC(=S)N(CCCN2CCOCC2)Cc2ccco2)cc1C,-2.78%
7,CC1CCC/C(=N\NC(=S)NCc2ccccc2)C1 (stereo not drawn),9.36%
8,Cc1ccc2oc(=O)c3cnn(CC(=O)N(Cc4ccco4)C4CCCCC4)c3c2c1,2.86%
9,C=CCN1C(=O)c2ccc(C(=O)N3CCC(C(N)=O)CC3)cc2C1=O,7.71%
10,CCOC(=O)CCc1nc2ccccc2[nH]1,21.3%
11,Cl.NCCCCC(=O)O,11.5%
12,Cc1ccc(C(=O)NC(C)c2nnc(SCC(=O)NC3CCCC3)n2C)cc1 (stereo not drawn),-3.25%
13,CC(C)Oc1cccc(-c2cc(C(=O)NN3CCOCC3)c3ccccc3n2)c1,-25.3%
14,O=C(CNC(=O)c1cccnc1)N/N=C/c1ccc(O)cc1O,8.95%
15,COc1ccccc1N1CCN(C(=O)c2sc3nc4n(c(=O)c3c2C)CCC4)CC1,15.3%
16,COc1ccc(N(CC(=O)N2CCc3ccccc3C2)S(C)(=O)=O)cc1Cl,10.6%
17,Cl.O=C(CCN1CCOCC1)NCc1ccccc1,13.1%
18,Cc1cc2nc(-c3ccc(SCc4ccccn4)nc3)[nH]c2cc1C,8.36%
19,Cc1ccc(C(=O)ONc2ccc(N=O)cc2)cc1,15.1%
20,COc1ccc(C(=S)N2CCNCC2)cc1,6.37%
21,CC(=O)NCC(=O)OCC(=O)c1ccc(Cl)cc1,13.1%
22,O=C(NCCc1ccc(Cl)cc1)c1ccc(Br)s1,13.8%
23,c1ccc(-c2ncnc3cc4n(c23)CCC4)cc1,16.1%

row,SMILES,"hERG current change (%, negative = inhibition) at 1uM"
1,Cc1ccc2c(c1)-c1ccccc1S(=O)(=O)N2,5.29%
2,CCCn1c(=O)c2[nH]c(-c3ccc(OCC(=O)Nc4ccc(C#N)cc4)cc3)nc2n(CCC)c1=O,13.4%
3,CCN(CC(=O)Nc1c(F)cccc1F)C(=O)CN1C(=O)C2CCCCC2C1=O (stereo not drawn),3.22%
4,CC(=O)c1cccc(NC(=O)C2CC(=O)N(c3cccc(C)c3C)C2)c1 (stereo not drawn),5.94%
5,COc1ccc(N(CC(=O)Nc2ccccc2F)S(=O)(=O)c2ccc(C)c([N+](=O)[O-])c2)cc1,3.73%
6,O=C1CCCN1CCCN1CC(C(=O)N(CCO)Cc2ccccc2)CCC1=O (stereo not drawn),7.12%
7,CCC(=O)NCCc1nc(-c2ccccc2)no1,7.96%
8,CCOC(=O)c1ccc(N=C2NC(=O)CS2)cc1,-6.26%
9,COC(=O)c1c(NC(=O)c2ccccc2[N+](=O)[O-])sc2c1CC(C)(C)NC2(C)C,8.73%
10,COc1ccc(F)cc1C(=O)C1CCCN(Cc2cccn2-c2cccnc2)C1 (stereo not drawn),5.09%
11,NC(=O)c1ccc(SCC(=O)OCC(=O)NCC2CCCCC2)c([N+](=O)[O-])c1,12.5%
12,O=C(Cc1ccc(-n2c(=O)c3ccccc3n(Cc3ccccc3Cl)c2=O)cc1)NCC1CCCO1 (stereo not drawn),9.39%
13,CCOc1ccc(N=Nc2c(N)[nH][nH]c2=O)cc1,7.58%
14,CCCCC(=O)Nc1cc2nn(-c3ccc(OC)cc3)nc2cc1C,19%
15,Nc1nc2c(s1)CCCCCCCCCC2,16%
16,Cc1cc(C)c(C(=O)N2CCC(N3CCC(C(=O)NC(C)C)CC3)CC2)o1,-15.2%
17,Cc1onc(-c2c(F)cccc2Cl)c1C(=O)NCC1COc2ccccc2O1 (stereo not drawn),0.895%
18,CCN(CC)S(=O)(=O)c1ccc2[nH]cc(C(=O)NCCC3=CCCCC3)c(=O)c2c1,5.01%
19,CCCCCn1c(=O)c(C(=O)NCc2ccncc2)c(O)c2ccccc21,2.72%
20,Cc1ccc(Cc2cnc(N3C(=N)SC(C)C3=O)s2)cc1 (stereo not drawn),-0.252%
21,Cc1cc(=O)[nH]c(SCC(=O)c2ccccc2)c1C#N,2.86%
22,Cl.c1ccc(N2CCN(c3nc(NCc4ccco4)c4ccccc4n3)CC2)cc1,-9.89%
23,NNC(=S)Nc1ccc(S(=O)(=O)N2CCCCC2)cc1,11.4%

row,SMILES,"hERG current change (%, negative = inhibition) at 1uM"
1,COc1ccnc(Nc2cccc(C)c2)c1C#N,-5.75%
2,CC(C)CCNC(=O)c1cc(S(=O)(=O)N2CCc3ccccc32)cn1C,13.7%
3,Cc1ccc(NC(=O)C2CCN(S(=O)(=O)c3c(C)noc3/C=C/N(C)C)CC2)cc1,15.8%
4,CC(C)n1ncc2c(C(=O)NCc3ccccc3CN(C)C)cc(C3CC3)nc21,0.977%
5,FC(F)(F)c1cnc(N2CCC(=NOCc3ccc(Cl)cc3)CC2)c(Cl)c1,19.7%
6,CC(C)c1onc(C(=O)Nc2cccnc2Cl)c1[N+](=O)[O-],12.6%
7,Cc1cccc(Nc2ccc(S(=O)(=O)N3CCOCC3)cc2[N+](=O)[O-])c1,-5.27%
8,CC(C)NC(=O)c1ccc2c(c1)N(CC(=O)N1CCOCC1)C(=O)C(C)(C)O2,-9.82%
9,CC1CCCCC1NC(=O)CSc1nnc(CC(=O)Nc2ccccc2F)n1C (stereo not drawn),20.2%
10,COc1ccccc1NS(=O)(=O)c1ccc(Cl)c(NC(=O)C(C)N2C(=O)c3ccccc3C2=O)c1 (stereo not drawn),4.96%
11,C/C(=N\N=C\c1ccccc1F)c1nnn(-c2nonc2N)c1C,4.41%
12,Cc1cc(C)nc(Sc2c(C)n[nH]c2C)n1,9.25%
13,CC1(C)CC(=O)C(Sc2ccccc2C(=O)O)=C(O)C1,12%
14,O=C(CSCc1ccccc1)Nc1ccc2c(c1)OCO2,11%
15,CCCCCCN(C(=O)CCCCCN1C(=O)NC(c2ccc(-c3ccccc3)cc2)C(C(=O)OCc2ccccc2)=C1C)C(C)C(=O)NCCCC (stereo not drawn),15.8%
16,Cc1ccc(/C=N/n2c(-c3ccccc3)n[nH]c2=S)cc1,16.2%
17,CCOc1cc(NC(=S)NCCCN(C)C)c(OCC)cc1NC(=O)c1cccs1,-2.39%
18,O=C(c1ccc2ccccc2c1)c1c[nH]cc1-c1ccccc1,15.7%
19,Cn1c(-c2nnn(-c3ccc(F)cc3)n2)cc2ccccc21,20.1%
20,COc1ccc(CCNCC(O)COc2cccc(Br)c2)cc1 (stereo not drawn),-2.83%
21,CC1CCCC(NC(=O)COC(=O)c2cccnc2Cl)C1C (stereo not drawn),1.89%
22,O=C(O)c1ccc2c(c1)N(Cc1cccc(F)c1)C(=O)CS2,2.35%
23,Cc1ccnc(NC(=O)CSc2ccc3c(c2)OCCO3)c1,10.7%

row,SMILES,"hERG current change (%, negative = inhibition) at 1uM"
1,Cc1cccc(N2C(=O)C(O)=C(C(=O)c3cccs3)C2c2ccccc2)n1 (stereo not drawn),15%
2,CCOC(=O)C1(Cc2ccc(Cl)cc2)CCN(C(=O)c2cscn2)CC1,-12.4%
3,O=C(O)c1ccc(CNCc2ccc(Cl)cc2)cc1,11.3%
4,CC1(C)C2CCC1(C)C(OC(=O)c1ccccc1C(=O)O)C2 (stereo not drawn),11.8%
5,CN(C)/C=N/c1cc(=O)[nH]c(=O)n1Cc1ccccc1,9.73%
6,COc1ccc(S(=O)(=O)Cc2ccc(C(=O)NC(C)C)o2)cc1,14%
7,COc1cccc(C(=O)n2ccc(-c3cccs3)n2)c1,12.2%
8,COc1ccc(C(=O)N2CCCC(CNC(=O)c3ccc(F)cc3)C2)cc1OC (stereo not drawn),2.4%
9,Cc1cc2oc(=O)cc(CN3CCOCC3)c2cc1C(C)C,-2.79%
10,Cc1cc(C)cc(C(=O)Nc2nnc(SCC(=O)N3CCCc4ccccc43)s2)c1,8.23%
11,Cc1ccc(Sc2ccc(C(=O)N3CCOCC3)cc2[N+](=O)[O-])cc1,0.678%
12,CC(NC(=O)NCCCC(=O)O)(C(F)(F)F)C(F)(F)F,3.96%
13,CN(C)c1ccc(P(=O)(Nc2ccccc2)N2CCOCC2)c(NC(=O)c2cccs2)c1 (stereo not drawn),7.94%
14,Cc1cccc(NC(=O)Cn2cc(C(=O)c3ccco3)c3ccccc32)c1,-0.405%
15,O=C(Nc1ccccc1OCc1ccccc1)c1ccccc1Br,17.8%
16,O=C(CN1C(=O)C2CC=CCC2C1=O)N1CCN(c2ccc([N+](=O)[O-])cc2)CC1 (stereo not drawn),-64.2%
17,CC(=O)NC1CC2CCCC(C1)N2CC(=O)N1CCCc2ccccc21 (stereo not drawn),6.84%
18,COCCN(CC(=O)Nc1ccccc1C(F)(F)F)C(=O)/C=C/c1cc(Cl)c2c(c1)OCO2,12.6%
19,O=C(Nc1ccon1)c1sc2cc(F)ccc2c1Cl,4.69%
20,CCCCCn1c(=O)[nH]c2cc(C(=O)NCCCN3CCCCC3C)ccc2c1=O (stereo not drawn),-18.8%
21,CCOC(=O)/C(C#N)=C1/C=Cc2ccccc2N1CC,6.62%
